Experimental data: the supplement of paper PMC7826260
The other results are listed elsewhere or left out. Each Rep nickase domain was tested in vitro on the same pool of single strands for 1 h at 37 °C with 3 µM enzyme; only the middle of the 90-letter strands is printed. Numbers give uncut DNA relative to the enzyme-free pool, as log2; strong cutting gives strongly negative numbers. There is no active / inactive call. Reads are scaled to the total; where an enzyme cuts many sequences, the uncut ones exceed 0.

Assays:
Assay in all cases: uncleaved DNA left, log2 of reads against the no-enzyme library (log2 ratio); higher = less cleavage (more negative = more Rep cleavage of the k-mer); sequences stand for … in CTCGTCCG…ACCGGAGA
[1] = tested on: T1, Rep nickase domain of Muscovy duck circovirus
T1 sequence (protein, residues 1-111, tag omitted): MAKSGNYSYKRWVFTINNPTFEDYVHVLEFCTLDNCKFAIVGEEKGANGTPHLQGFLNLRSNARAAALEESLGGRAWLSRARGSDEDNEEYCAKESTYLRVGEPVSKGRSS
Procedure: (§1)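 A pool of 90-nt single-stranded DNAs with seven random bases just before the constant AC of the nick site (name = the seven bases) was cut by 3 µM recombinant His6-SUMO-tagged Rep nickase domain (300 nM DNA, 50 mM HEPES pH 8.0, 50 mM NaCl, 1 mM MnCl2, 1 h, 37 °C, three replicates). Uncut DNA was amplified and sequenced.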

[2] = tested on: T2, Rep nickase domain of banana bunchy top virus
T2 sequence (protein, residues 1-94, tag omitted): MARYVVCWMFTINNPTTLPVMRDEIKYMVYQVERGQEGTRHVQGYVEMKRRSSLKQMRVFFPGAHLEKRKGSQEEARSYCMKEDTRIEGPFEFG
Procedure: as §1

[3] = tested on: T3, Rep nickase domain of cabbage leaf curl virus
T3 sequence (protein, residues 1-116, tag omitted): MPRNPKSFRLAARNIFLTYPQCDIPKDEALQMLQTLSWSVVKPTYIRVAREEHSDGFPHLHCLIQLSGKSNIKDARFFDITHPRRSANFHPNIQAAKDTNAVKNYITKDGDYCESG
Procedure: as §1

[4] = tested on: T4, Rep nickase domain of chickpea chlorotic dwarf virus
T4 sequence (protein, residues 1-124, tag omitted): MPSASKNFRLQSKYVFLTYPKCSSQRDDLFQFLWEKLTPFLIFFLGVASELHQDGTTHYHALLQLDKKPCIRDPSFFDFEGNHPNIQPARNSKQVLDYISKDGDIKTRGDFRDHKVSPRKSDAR
Procedure: as §1

[5] = tested on: T5, Rep nickase domain of faba bean necrotic yellows virus
T5 sequence (protein, residues 1-98, tag omitted): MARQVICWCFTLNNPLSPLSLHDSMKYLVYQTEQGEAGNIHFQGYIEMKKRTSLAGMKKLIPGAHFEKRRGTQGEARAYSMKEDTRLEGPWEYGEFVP
Procedure: as §1

[6] = tested on: T6, Rep nickase domain of maize striate mosaic virus
T6 sequence (protein, residues 1-117, tag omitted): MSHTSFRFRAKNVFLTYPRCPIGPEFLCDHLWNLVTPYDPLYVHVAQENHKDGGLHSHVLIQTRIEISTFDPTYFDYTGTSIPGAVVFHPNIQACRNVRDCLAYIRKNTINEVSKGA
Procedure: as §1

[7] = tested on: T7, Rep nickase domain of porcine circovirus 2
T7 sequence (protein, residues 2-116, tag omitted): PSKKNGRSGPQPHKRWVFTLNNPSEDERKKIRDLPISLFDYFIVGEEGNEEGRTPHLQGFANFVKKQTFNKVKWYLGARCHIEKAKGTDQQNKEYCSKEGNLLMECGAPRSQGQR
Procedure: as §1

[8] = tested on: T8, Rep nickase domain of tomato yellow leaf curl virus
T8 sequence (protein, residues 1-136, tag omitted): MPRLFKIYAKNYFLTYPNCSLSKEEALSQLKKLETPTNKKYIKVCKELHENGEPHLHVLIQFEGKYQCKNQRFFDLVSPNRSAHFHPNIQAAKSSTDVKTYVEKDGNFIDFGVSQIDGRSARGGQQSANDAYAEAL
Procedure: as §1

[9] = tested on: T9, Rep nickase domain of wheat dwarf virus
T9 sequence (protein, residues 1-137, tag omitted): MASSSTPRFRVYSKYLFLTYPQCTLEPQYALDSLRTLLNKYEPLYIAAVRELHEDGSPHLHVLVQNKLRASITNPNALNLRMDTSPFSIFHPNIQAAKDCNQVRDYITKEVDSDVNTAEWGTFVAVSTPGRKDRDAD
Procedure: as §1

Sequence | uncleaved DNA left (log2) [1] | uncleaved DNA left (log2) [2] | uncleaved DNA left (log2) [3] | uncleaved DNA left (log2) [4] | uncleaved DNA left (log2) [5] | uncleaved DNA left (log2) [6] | uncleaved DNA left (log2) [7] | uncleaved DNA left (log2) [8] | uncleaved DNA left (log2) [9]
GAGTTCC | -0.0394 | -0.00941 | 0.431 | 0.755 | -0.0513 | 1.44 | -1.76 | 0.0765 | 0.148
CGGGTTT | -0.053 | -0.0641 | 0.365 | 0.243 | -0.0676 | 1.24 | -0.105 | -0.0506 | -0.0627
GGGACCC | -0.0869 | 0.0829 | 0.782 | 1.99 | -0.157 | 2.16 | 0.0909 | -0.0993 | 0.126
TATTACG | -0.36 | -0.0739 | -0.975 | -1.11 | -0.0897 | -1.39 | -2.23 | -0.0433 | -0.0846
CATTTCA | -1.12 | -1.58 | -0.281 | -1.97 | 0.0812 | -0.954 | -1.43 | 0.135 | 0.0555
GGCTCGT | -0.0158 | 0.0356 | 0.316 | 0.755 | 0.0382 | 1.6 | -0.058 | 0.0672 | -0.000775
AACAGGG | 0.0775 | -0.045 | -0.283 | -0.338 | 0.0664 | -1.04 | 0.213 | 0.0379 | 0.0185
TCTGAAT | 0.144 | 0.136 | 0.221 | -0.0163 | 0.143 | 0.393 | 0.00629 | 0.156 | 0.112
CGAACGC | 0.0833 | -0.011 | 0.028 | 0.0206 | 0.0406 | -0.214 | 0.0751 | 0.0207 | 0.0634
TCGCCCC | 0.0788 | 0.00752 | 0.11 | -0.0835 | -0.118 | -0.161 | -0.255 | -0.115 | 0.0628
TACGTAT | 0.0673 | -0.0961 | -0.608 | -2.14 | -0.00824 | -0.335 | -0.417 | -0.0863 | -0.138
GATCGCC | 0.0435 | -0.0391 | 0.0866 | 0.16 | -0.0621 | -0.0323 | 0.0176 | 0.0053 | 0.00469
TTTGGCG | 0.0173 | -0.0146 | -0.585 | 0.948 | 0.0578 | -0.238 | 0.126 | -0.085 | -0.132
CTCATCA | -0.169 | 0.028 | 0.0867 | -0.626 | -0.112 | -0.42 | -0.197 | -0.0163 | 0.00906
GCGTTAG | -0.0499 | -0.115 | -0.146 | 0.162 | 0.0556 | -0.788 | 0.0366 | -0.0807 | -0.0704
ATAATAA | 0.0275 | 0.0934 | -0.1 | -0.447 | -0.0286 | -0.762 | 0.0261 | -0.13 | -0.0574
GTAATAG | 0.0466 | -0.0637 | -0.398 | -0.325 | 0.0225 | -0.898 | 0.101 | -0.00363 | -0.0806
CGAGCGA | -0.101 | -0.0233 | -0.0829 | 0.204 | -0.147 | -0.177 | 0.0056 | -0.094 | 0.0108
TGTAACG | 0.0489 | 0.000346 | -0.554 | -0.873 | 0.00733 | -1.1 | 0.104 | -0.0603 | -0.0663
ATACGGG | 0.0426 | 0.00241 | -0.251 | -0.154 | 0.0164 | -0.795 | 0.278 | 0.0246 | -0.0221
CAGCCTT | -0.0256 | -0.119 | -0.301 | -2.16 | 0.0108 | 0.0323 | -2.85 | -0.0194 | -0.0594
GGGGTTT | 0.0476 | 0.0928 | 0.738 | 1.65 | -0.0121 | 2.12 | 0.107 | 0.0177 | 0.066
CAGCCTA | -0.0337 | 0.0167 | -0.219 | -2.39 | 0.00263 | -0.375 | -0.706 | -0.0322 | 0.0264
GATCACA | -0.15 | -0.0504 | 0.116 | -0.965 | -0.16 | 0.724 | -0.0904 | -0.0253 | 0.0613
GGGTCTT | -0.0916 | 0.115 | 0.792 | 1.91 | 0.0436 | 2.24 | -0.423 | 0.0874 | 0.126
AAGTGGG | -0.0144 | 0.0466 | -0.639 | -0.577 | 0.0814 | -1.03 | 0.0955 | 0.102 | -0.0754
GTAGGGA | 0.0608 | 0.082 | 0.382 | 0.971 | 0.0862 | 1.07 | 0.118 | 0.109 | 0.206
CCGCGCT | 0.113 | -0.0469 | -0.575 | -1.12 | 0.0205 | -0.851 | 0.00531 | -0.209 | -0.151
TAACGAA | -0.0799 | -0.157 | -0.675 | -1.93 | 0.0464 | -0.853 | -0.0468 | -0.112 | -0.0806
TTAGCCA | -0.0613 | 0.0138 | 0.127 | -0.682 | -0.0333 | -0.311 | -0.0733 | 0.0105 | -0.00233
